Out of some 310,000 compounds screened, about 2,200 (0.71%) showed an effect of 50% or more. The effect is printed as a negative number. The list shows a part of the results.

In the experiment the target is human ether-à-go-go-related gene (hERG) potassium channel (human, UniProt Q12809). The experiment can be described thus: primary screen, population patch clamp on CHO cells stably expressing hERG.
human ether-à-go-go-related gene (hERG) potassium channel, sequence (Q12809 whole entry, looked up): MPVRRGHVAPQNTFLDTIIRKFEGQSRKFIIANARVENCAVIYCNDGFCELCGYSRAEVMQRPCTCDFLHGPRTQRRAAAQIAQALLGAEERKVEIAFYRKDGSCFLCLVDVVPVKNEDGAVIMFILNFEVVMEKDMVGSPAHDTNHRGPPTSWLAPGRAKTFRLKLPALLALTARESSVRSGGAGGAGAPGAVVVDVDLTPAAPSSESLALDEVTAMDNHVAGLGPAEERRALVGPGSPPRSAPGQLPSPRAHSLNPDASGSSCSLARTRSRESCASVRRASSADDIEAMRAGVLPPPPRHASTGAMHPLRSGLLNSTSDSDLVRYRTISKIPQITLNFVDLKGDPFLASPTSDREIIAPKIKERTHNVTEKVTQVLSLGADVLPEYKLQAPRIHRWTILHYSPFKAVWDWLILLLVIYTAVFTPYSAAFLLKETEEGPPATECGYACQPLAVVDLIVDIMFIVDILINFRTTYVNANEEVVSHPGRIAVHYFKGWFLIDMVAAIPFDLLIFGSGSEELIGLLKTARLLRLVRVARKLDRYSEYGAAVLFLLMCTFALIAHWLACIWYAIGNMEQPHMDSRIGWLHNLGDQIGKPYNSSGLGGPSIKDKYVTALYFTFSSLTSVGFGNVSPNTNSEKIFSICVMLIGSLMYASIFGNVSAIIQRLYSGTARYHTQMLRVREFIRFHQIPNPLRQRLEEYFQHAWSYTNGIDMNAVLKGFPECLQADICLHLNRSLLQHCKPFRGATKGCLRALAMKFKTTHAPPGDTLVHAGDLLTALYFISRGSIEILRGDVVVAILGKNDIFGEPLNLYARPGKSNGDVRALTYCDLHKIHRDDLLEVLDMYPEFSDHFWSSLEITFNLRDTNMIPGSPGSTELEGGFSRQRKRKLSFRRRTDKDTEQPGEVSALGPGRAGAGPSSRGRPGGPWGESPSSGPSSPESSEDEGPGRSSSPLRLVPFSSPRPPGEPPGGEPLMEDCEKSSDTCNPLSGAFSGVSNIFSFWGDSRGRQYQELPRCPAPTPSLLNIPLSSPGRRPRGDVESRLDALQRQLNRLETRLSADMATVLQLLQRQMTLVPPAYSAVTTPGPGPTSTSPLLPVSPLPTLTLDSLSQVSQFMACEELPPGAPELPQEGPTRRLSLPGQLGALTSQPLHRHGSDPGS
Consider `CN(Cc1ccco1)C(=O)C1CCN(c2nnc(-n3cccc3)s2)CC1`, for which the “hERG current change (%, negative = inhibition) at 1uM” value is -14.4%.
With `CC1(C)CC(=O)C=C(Nc2ccccc2F)C1`, the “hERG current change (%, negative = inhibition) at 1uM” value is listed as -0.807%.
On to `NSc1nc(N)c2nc(-c3ccccc3)c(-c3ccccc3)nc2n1`, for which the “hERG current change (%, negative = inhibition) at 1uM” value is 13%.
As to `CCC1(CC)C(=O)NN(c2ccccc2)C1=O`, the “hERG current change (%, negative = inhibition) at 1uM” value turned out to be 6.26%.
`COc1ccc(S(=O)(=O)n2nc(OCc3cccs3)cc2N)cc1`: the “hERG current change (%, negative = inhibition) at 1uM” value is recorded as -7.53%.
Turning to `Cc1ccc(C2(C)NC(=O)N(CC(=O)NC(=O)NC(C)C)C2=O)cc1` (stereo not drawn), the “hERG current change (%, negative = inhibition) at 1uM” value is given as 8.86%.
`N#C/C(=C\c1ccc(OCc2ccc(Br)cc2)cc1)C(=O)Nc1cccc(C(=O)O)c1`: the “hERG current change (%, negative = inhibition) at 1uM” value turned out to be 15.4%.
To `CN(C)c1ccc(S(=O)(=O)N2CCCCC2)cc1NC(=O)CCNC(=O)c1ccco1` belongs 9.59%.
For the compound `O=C(CSCc1cccc(Cl)c1)Nc1ccccc1-c1ccccc1`, the “hERG current change (%, negative = inhibition) at 1uM” value is on record as -2.3%.
Take `Cc1cccc(NC(=O)COc2coc(CN3CCN(Cc4ccccc4)CC3)cc2=O)c1`: the “hERG current change (%, negative = inhibition) at 1uM” value was -28.3%.
The value for `O=C(NCc1ccc(Cl)cc1)C1CCCN(c2ncnc3c2nc2n3CCCCC2)C1` (stereo not drawn) was -4.72%; that for `C=CCn1c(SCC(=O)Nc2ccc(C(=O)O)cc2)nnc1-c1cccnc1` was 14.8%; that for `Cc1ccc(NC(=O)CN(C)CC(=O)Nc2ccc(F)c(Cl)c2)cc1.O=C(O)C(=O)O` was 4.7%.
Take `CN1C(=O)N(C)C(=O)C2(Cc3ccccc3N3CCOCC32)C1=O` (stereo not drawn): the “hERG current change (%, negative = inhibition) at 1uM” value came to 8.98%.
Take `CC(C)(C)CC(=O)OCC(=O)Nc1cc(C(C)(C)C)nn1-c1ccccc1`: the “hERG current change (%, negative = inhibition) at 1uM” value was -12.9%.
The value for `COCCN1C(=O)C(=O)/C(=C(/O)c2ccc(C)cc2)C1c1ccccn1` (stereo not drawn) was 22%; that for `Fc1ccc(N2CCN(C3CCC(c4ccccc4)CC3)CC2)cc1` (stereo not drawn) was 11.8%; that for `CCOC(=O)c1nnc(-c2ccccc2)nc1Oc1ccc(Cl)cc1` was -18.4%.
To `O=C1NCC(COCc2ccco2)O1` (stereo not drawn) belongs 15.8%; to `Clc1c(CSc2nc3ccccc3o2)nc2ccccn12`, 9.77%.
In the case of `CN(Cc1ccccc1)C(=O)c1ccc(NC(=O)Cc2cccc(NC(=O)C3CCN(C(=O)C4CCC4)CC3)c2)cc1`, the “hERG current change (%, negative = inhibition) at 1uM” value is reported as 8.22%.
On to `O=C(Nc1cc(Sc2nc3ccccc3s2)cc([N+](=O)[O-])c1)c1cccc(F)c1F`, for which the “hERG current change (%, negative = inhibition) at 1uM” value is listed as 6.89%.
As to `CC(C)CC1Nc2ncnc(N3CCN(c4ccccc4)CC3)c2N(Cc2ccccc2)C1=O.O=C(O)C(F)(F)F` (stereo not drawn), the “hERG current change (%, negative = inhibition) at 1uM” value is listed as 5.28%.
For the compound `Cc1nnc(SCC(=O)N2CCOCC2)c2ccccc12`, the “hERG current change (%, negative = inhibition) at 1uM” value is listed as -0.884%.
Consider `O=C(N/N=C/c1cccnc1)c1ccc2ccccc2c1O`, for which the “hERG current change (%, negative = inhibition) at 1uM” value was 14.3%.
In the case of `Cc1cc(Cl)ccc1OCC(=O)OCC(=O)NC1CCS(=O)(=O)C1` (stereo not drawn), the “hERG current change (%, negative = inhibition) at 1uM” value was -2.3%.
Turning to `COc1ccc2c(c1)C1=NN(/C(C)=C/C(C)=O)C(c3ccc(F)cc3)C1CC2` (stereo not drawn), the “hERG current change (%, negative = inhibition) at 1uM” value is reported as 2.13%.
As to `CC(Oc1ccccc1F)C(=O)NNC(=O)C1CC(=O)N(c2ccc3c(c2)OCCO3)C1` (stereo not drawn), the “hERG current change (%, negative = inhibition) at 1uM” value is 4.26%.
To `COc1cccc(-c2nnc3sc(-c4ccccn4)nn23)c1` belongs -4.31%; to `CCOC(=O)C1CCN(C(=O)CC(C)S(=O)(=O)c2ccc3c(c2)NC(=O)CO3)CC1` (stereo not drawn), 20.8%.
To `COC(=O)[C@@H]1C[C@H]2CC[C@H](O)C[C@H]2N1Cc1ccccc1OS(=O)(=O)c1ccc(C)cc1` belongs 13.1%; to `CC(NC(=O)C1C(=O)N(CCO)C2(C)CC1c1ccccc1O2)c1ccccc1` (stereo not drawn), -4.93%.
For the compound `Cc1ccc(NC(=S)NNC(=O)c2ccc(N3CCOCC3)c([N+](=O)[O-])c2)cc1Cl`, the “hERG current change (%, negative = inhibition) at 1uM” value is recorded as 4.56%.
For `CCN(CC)CCCn1c2c(c(SCC(=O)Nc3cccc(C(C)=O)c3)nc1=O)CCC2`, the “hERG current change (%, negative = inhibition) at 1uM” value was -14.9%.
`CC(=O)C12CC(C)=C(C)CC1CC1C3CCC4=CC(=O)CCC4(C)C3CCC12C` (stereo not drawn): the “hERG current change (%, negative = inhibition) at 1uM” value is 11.1%.
To `N#Cc1c(NCCN)nc(-c2ccco2)c2c1CCCC2` belongs -6.44%.
For the compound `Cc1nc2ncnn2c(C)c1CCC(=O)N1CCN(C(=O)c2ccco2)CC1`, the “hERG current change (%, negative = inhibition) at 1uM” value came to 4.74%.
On to `Cc1ccc2cc(C(c3nnnn3Cc3ccccc3)N3CCN(c4ccccc4)CC3)c(=O)[nH]c2c1` (stereo not drawn), for which the “hERG current change (%, negative = inhibition) at 1uM” value was 0.344%.
As to `COc1ccc(NC(=O)CN2C(=O)CC(C)S(=O)(=O)c3ccccc32)cc1` (stereo not drawn), the “hERG current change (%, negative = inhibition) at 1uM” value was found to be 9.84%.
For `CCOC(=O)c1[nH]c(C)c(C(=O)OCC(=O)N(C)C2CCS(=O)(=O)C2)c1C` (stereo not drawn), the “hERG current change (%, negative = inhibition) at 1uM” value is recorded as 19.2%.
For `Cn1nc(C(F)(F)F)c(-c2cccc(C(F)(F)F)c2)c1NC(=O)c1ccco1`, the “hERG current change (%, negative = inhibition) at 1uM” value is on record as -3.7%.
As to `CCCn1nnc(NC(=S)NC(=O)CC)n1`, the “hERG current change (%, negative = inhibition) at 1uM” value came to 5.36%.

(Values after article PMC4336329 (PLoS ONE, 2015).)
